Out of some 150,000 compounds screened, about 180 (0.12%) were called active. Inconclusive results, whose numbers are uncertain, are shown with a selection of clear calls. Calls follow the shape of the dose curve; as a rule, active = well fitted cell-killing curve with a large enough effect; inconclusive = small, poorly fitted or top-dose-only effect, or effect the other way; inactive = flat fitted curve, though single readings scatter. A potency beside an inconclusive call is a rough fit, not a confirmed value. More than one record can exist for a structure, and the calls need not agree.
test: GF-AFC viability counterscreen for inhibitors of alpha-synuclein gene (SNCA) expression; conditions: HEK-293-SNCA-luc viability, GF-AFC fluorescence, 24 h; activity change, negative = cytotoxicity: at 57.1 µM (top of the series) unless noted; also: nearly all actives have a fitted effect of over 30% in size;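 as to activity change, negative = cytotoxicity: 0% = DMSO-treated cells and -100% = medium-only wells without cells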
In short: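 HEK-293-SNCA-luc cells (1500/well) plated 24 h, then exposed 24 h to a dilution series; GF-AFC added 30 min at 37C, fluorescence 405/540 nm; normalised to medium-only and DMSO wells, Hill fit.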
Potency is read from the fitted curve at half-maximal effect; tags tell the direction and shape of the fitted curve.

| SMILES | Potency | activity change, negative = cytotoxicity |
| --- | --- | --- |
| Cc1nc2c(c(-c3ccc(Cl)cc3)n1)CCN(C(=O)c1ccccc1F)CC2 | inconclusive: 1.26 µM [cytotoxic, full curve, poor fit] | – |
| Cc1ccc(C(=O)NCc2nnc3cc(-c4nc(C5CC5)no4)ccn23)cc1F | inconclusive: 39.8 µM [cytotoxic, single point] | – |
| Cc1cc(C)n(CC(=O)Nc2cc(F)ccc2F)c(=O)c1C#N | inconclusive: 39.8 µM [rising, single point] | – |
| CN1CCC(C(=O)N2Cc3ccccc3CC3(CCCCN3Cc3ccncc3)C2)CC1 (stereo not drawn) | inactive | – |
| CCN(CC)C(=O)C[C@@H]1CCNC[C@@H]1Cc1cc(-c2ccc(C(C)(C)C)cc2)on1 | inconclusive: 28.2 µM [cytotoxic, single point] | – |
| COc1cc(CNCCSc2nnnn2C)ccc1OCc1ccccc1C | inconclusive: 39.8 µM [cytotoxic, single point] | – |
| Cc1cn2nc(C(=O)Nc3ccc(F)c(F)c3)cc2c(N(C)Cc2ccccc2)n1 | inactive | – |
| COc1ccc(-c2cnc3[nH]cc(CC(=O)NCc4cccnc4)c3c2)cn1 | inactive | – |
| O=C(NC1CCCCC1)C1CCCN(Cc2cccc(-c3cccs3)c2)C1 (stereo not drawn) | inactive | – |
| CCN(CC)CCn1c(=N)n(CCOc2ccccc2Cl)c2ccccc21 | inconclusive: 31.6 µM [cytotoxic, single point] | – |
| COc1ccc(C(=O)N2CCC(c3noc(-c4cnccn4)n3)C2)cn1 (stereo not drawn) | inconclusive: 15.8 µM [cytotoxic, partial curve, poor fit] | – |
| COc1ccc(OC)c(NC(=O)Cn2ncc3c2-c2ccccc2OC3)c1 | inconclusive: 44.7 µM [rising, single point] | – |
| O=C(c1cccc2nccnc12)N1CCC2(CC1)Nc1ccccc1NC2=O | inconclusive: 35.5 µM [cytotoxic, single point] | – |
| CCc1nc2c(NC(=O)c3ccc(F)c(Cl)c3)cccn2n1 | inactive | – |
| COc1ccccc1C(=O)Nc1cc(-c2ccncc2)nn1-c1ccccc1 | inconclusive: 8.91 µM [rising, single point] | – |
| CC1CCc2nn3ccn(CC(=O)Nc4ccccc4)c(=O)c3c2C1 (stereo not drawn) | inactive | – |
| COc1ncccc1-c1cc2c(ccn2CC2CCN(C)CC2)c(N2CCOCC2)n1 | inactive | – |
| COC(=O)CCNC(=O)C1c2ccccc2C(=O)N(CC(C)C)C12CCCCC2 (stereo not drawn) | inconclusive: 11.2 µM [cytotoxic, partial curve, poor fit] | – |
| O=C(NCCCc1ccccc1)c1nc2sccn2c1-c1cccnc1 | inactive | – |
| CCc1ccccc1NC(=O)CSc1nc2c(oc3ccccc32)c(=O)n1-c1ccccc1F | inconclusive: 2.51 µM [cytotoxic, full curve] | – |
| O=C(NC1CCOC2(CCOCC2)C1)c1cnc2c(O)cccn2c1=O (stereo not drawn) | inconclusive: 39.8 µM [rising, single point] | – |
| Cc1cccn2c(=O)c3cc(C(=O)N(Cc4ccccc4)C(C)C)sc3nc12 | inconclusive: 7.94 µM [rising, partial curve, poor fit] | – |
| O=S(=O)(NCc1ccccc1Cl)c1ccc(N2CCCCS2(=O)=O)cc1 | inconclusive: 35.5 µM [cytotoxic, single point] | – |

| SMILES | Potency | activity change, negative = cytotoxicity |
| --- | --- | --- |
| COc1ccc(/C=C/C(N)=O)cc1OC | inconclusive: 0.006 µM [cytotoxic, full curve, poor fit] | – |
| O=C(COc1ccccc1)N1CCC(N2CC3CC(C2)[C@H]2CCCC(=O)N2C3)CC1 (stereo partly drawn) | inactive | – |
| Oc1ccc(NCc2ccc(OCc3ccccc3Cl)cc2)cc1 | inconclusive: 22.4 µM [cytotoxic, single point] | – |
| O=C(NCc1cc(F)cc(F)c1)C1CCN(C(=O)c2ncn3c2COC(c2ccc(F)cc2)C3)CC1 (stereo not drawn) | inactive | – |
| CCOC(=O)c1ccc(N2C(=O)c3n[nH]c(-c4ccco4)c3C2c2ccc(F)cc2)cc1 (stereo not drawn) | inconclusive: 7.08 µM [cytotoxic, single point] | – |
| CC1=C(C(=O)Nc2ccc(F)cc2F)C2(CCCCCC2)OC1=O | inconclusive: 5.62 µM [rising, single point] | – |
| Cc1noc(-c2ccn3c(CNC(=O)c4ccc(C)c(F)c4)nnc3c2)n1 | inactive | – |
| O=C(Cc1ccccc1Cl)NC1CCN(c2cc(-c3cccs3)[nH]n2)C1 (stereo not drawn) | inconclusive: 20 µM [cytotoxic, single point] | – |
| O=C(c1cccs1)N1CCCC(n2cc(-c3nc(C4CC4)no3)nn2)C1 (stereo not drawn) | inactive | – |
| COc1cccc(Nc2ncc3c(n2)C(C)(C(=O)NC2CCOCC2)CC3)c1 (stereo not drawn) | inconclusive: 44.7 µM [cytotoxic, single point] | – |
| CN1CCN(c2ncc3nc(-c4cccs4)c(=O)n(-c4ccccc4)c3n2)CC1 | inconclusive: 25.1 µM [rising, partial curve] | – |
| COc1ccc(C(=O)N2CCn3c(nn(-c4ccc(C)cc4)c3=O)C2)cc1 | inconclusive: 3.16 µM [cytotoxic, single point] | – |
| COc1ccc(-c2nnc(C[C@@H]3C[C@@H](C(C)C)[C@H](CN4CCN(C)CC4)C=C3C)o2)cc1 | inconclusive: 20 µM [cytotoxic, partial curve] | – |
| CCOC(=O)C1=C(CN(CC)Cc2ccccc2)NC(=O)NC1c1ccc(OC(C)C)cc1 (stereo not drawn) | inconclusive: 39.8 µM [cytotoxic, single point] | – |
| COc1ccc(S(=O)(=O)N(CC(=O)Nc2cccc(C)c2)c2ccc(C)cc2)cc1OC | inconclusive: 7.08 µM [rising, single point] | – |
| CO[C@H]1C(=O)N(C(C)C)[C@H]1C1CCN(C(=O)Cc2ccccc2)CC1 | inconclusive: 6.31 µM [cytotoxic, single point] | – |
| COc1cc2c(NC3CCN(CC4CCCCC4)CC3)nc(N3CCCN(C(C)C)CC3)nc2cc1OCCCN1CCCCC1 | inconclusive: 3.77 µM [cytotoxic, partial curve, poor fit] | – |
| COCCn1c(=O)c(CCc2ccccc2)nc2cnc(N3CCNCC3)nc21 | inconclusive: 4.47 µM [cytotoxic, full curve, poor fit] | – |
| CC1(CNCc2ccccc2)COc2ccc(C(=O)Nc3cccc(Cl)c3)cc2N1 (stereo not drawn) | inconclusive: 17.8 µM [cytotoxic, partial curve, poor fit] | – |
| O=S(=O)(NCc1ccc(Cl)cc1)c1ccc(N2CCCCS2(=O)=O)cc1 | inactive | – |
| COc1ccc(-c2cc(C(O)C3CCCCN3)c3ccccc3n2)cc1 (stereo not drawn) | inconclusive: 33.6 µM [cytotoxic, single point] | – |
| CCOC(=O)c1cc2c(=O)n3ccccc3nc2n(C)c1=NC(=O)c1cc2ccccc2o1 | inconclusive: 15.8 µM [rising, partial curve, poor fit] | – |
| O=C(C1CCc2ncc(-c3ccsc3)n2C1)N1CCC(Cc2ccccc2)CC1 (stereo not drawn) | inactive | – |

| SMILES | Potency | activity change, negative = cytotoxicity |
| --- | --- | --- |
| CCOC(=O)c1cc(-c2ccc(F)cc2)n(CCC(=O)NC2CCCCC2)c1C | inconclusive: 39.8 µM [cytotoxic, single point] | – |
| O=C(C1CCC1)N1CCCC(Nc2ccc(F)cc2)C1 (stereo not drawn) | inactive | – |
| Cc1cccc(NC(=O)Cn2c(=O)n(CCC(=O)N3CCc4ccccc4C3)c(=O)c3ccccc32)c1 | inconclusive: 39.8 µM [cytotoxic, single point] | – |
| Cc1ccc(C(=O)N2CCCC(n3cc(-c4nc(-c5ccccc5)no4)nn3)C2)s1 (stereo not drawn) | inconclusive: 28.2 µM [cytotoxic, partial curve, poor fit] | – |
| CC(C)(Oc1nn(Cc2cccc(Cl)c2)c2ccccc12)C(=O)NCc1ccncc1 | inconclusive: 28.2 µM [cytotoxic, partial curve] | – |
| CCC(C)NC(=O)c1ccc2c(c1)CC(=O)N2Cc1ccccc1 (stereo not drawn) | inconclusive: 39.8 µM [rising, partial curve, poor fit] | – |
| O=C(O)c1cccnc1 | active: 4.29 µM | – |
| CN(C)c1ccc(CN2CCNc3cc(Nc4cccnc4)ncc3C2)cc1 | inactive | – |
| Cc1cnn(CCC(=O)N2C[C@@H](CO)[C@H](c3ccncc3)C2)c1 | inactive | – |
| Cc1ccccc1-c1nc2cnccn2c1NCCC(=O)N1CCC(C)CC1 | inactive | – |
| COc1ccc(Nc2ccnc(N3CCCC(C(=O)NCc4ccccc4)C3)n2)cc1 (stereo not drawn) | – | inconclusive: -72.8% |
| Cc1cc(C)n(CC(=O)N2CC[C@@H]3CN(S(C)(=O)=O)[C@@H]3C2)n1 | inconclusive: 4.47 µM [cytotoxic, single point] | – |
| CC1=C2CC(=O)C(C)CC/C=C(\C)CC2OC1=O (stereo not drawn) | inactive | – |
| CCc1nc2c(c(-c3ccc(Cl)cc3)n1)CCN(Cc1cccc3ccccc13)CC2 | inactive | – |
| Clc1cc(NCc2ccccn2)n2nccc2n1 | inconclusive: 6.31 µM [cytotoxic, partial curve, poor fit] | – |
| COCc1cc(NCCSCc2ccccc2C)ncn1 | inactive | – |
| CCOc1ccc(C(=O)c2cn(Cc3ccc(F)cc3)c3ccc(F)cc3c2=O)cc1 | inconclusive: 7.08 µM [cytotoxic, single point] | – |
| O=C(O)c1cccc2c1CCN2C(=O)c1ccc(F)cc1 | inactive | – |
| C/C=C(/C)C(=O)O[C@H]1C=C(CO)C(=O)[C@H](OC(=O)/C(C)=C/CO)[C@H]1C(C)C | inconclusive: 4.65 µM [cytotoxic, full curve, poor fit] | – |
| O=C(Nc1ccc(Oc2ccccc2)cc1)O[C@@H]1CO[C@H]2[C@@H]1OC[C@@H]2NS(=O)(=O)c1ccc(Cl)cc1 | inactive | – |
| Cc1ccc(C(=O)N2CCC(n3cc(-c4nc(-c5ccccc5)no4)nn3)CC2)cc1 | inactive | – |
| Cc1ccsc1CN(C(=O)c1oc2ccccc2c1C)C1CCS(=O)(=O)C1 (stereo not drawn) | inconclusive: 39.8 µM [cytotoxic, single point] | – |

— PubChem BioAssay AID1671193 (National Center for Advancing Translational Sciences (NCATS), 2021)
